Read counts are not given, so values of variants with three or more changes are uncertain.

B1: CPEB3 Ribozyme (parent)
chain: UAACAGGGGGCCACAGCAGAAGCGUUCACGUCGCAGCCCCUGUCAGAUUCUGGUGAAUCUGCGAAUUCUGCUGUAUAUCUC

The variants in this series derive from B1. The experiment in a line: self-cleavage, relative activity (ratio to wild type); higher = more cleavage; in vitro, sequencing. In a few lines:
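For each CPEB3 ribozyme variant, relative activity is its cleaved/total read fraction divided by the unmutated ribozyme's. Barcoded error-prone PCR libraries were transcribed by T7 RNA polymerase (5 hours, 37°C) and held in DNase I for 15 min before an EDTA stop, with cleavage occurring throughout. Template-switching reverse transcription and Illumina sequencing were used to read the RNAs. A 5-read minimum applied, and results are the mean of three batches.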
Turning to UAACAGGGGGCCUCAGCAGAAGCGUUCACGUCGCAGCCCCUAUCUGAUUCUGGUGAAUCUGCGAGUUCAGCUGUAUAUCUC [A13U G42A A45U A65G U69A], the self-cleavage turned out to be 0.03.

As for UAACAGGGGGCCUCAGCAGAAGCGCUCACGUCGCAGCCCCUGUUAGAUUCUGGUGAAUCUGCGAAUUCUGCUGUAUAUCCC [A13U U25C C44U U80C], the self-cleavage turned out to be 0.48.

As to UAACAGGGGGCCUCAGCAGAAGCGUACACGUCGCAGCCCCCGUCUGAUUCUGGUGAAUCUUCGGAUUCUGCUGUAUAUCUC [A13U U26A U41C A45U G61U A64G], the self-cleavage was 0.08.

As to UAACAGGGGGCCUCAGCAGAAGCGUUCACGCCGCAGCCCCUGUCAGAUUCUGGUGAAUCUGCGGAUUCUGCAGUAUAUCUC [A13U U31C A64G U72A], the self-cleavage was 0.22.

In the case of UAACAGGGGGCCUCAGCAGAAGCGCUCACGUCGCAGCCCCAGUCAGAUCCUGGUGAAUCUGCGAAAUCUGCUGUAUAUCUC [A13U U25C U41A U49C U66A], the self-cleavage came out at 0.04.

Consider UAACAGGGGGCCUCAGCAGAAGCGUCCACGCCGCAGCCCCUGUCAGAUUCUGGUGAAUCUGCGAAUUCUGCUGUGUAUCUC [A13U U26C U31C A75G], for which the self-cleavage turned out to be 0.15.

Take UAACAGGGGGCCUCAGCAGAAGCGCUCACGUCGCAGCCCCUGUCAGAUUCUGGCGAACCUGCGAAUUCUGCUGUAUAUCUC [A13U U25C U54C U58C]: the self-cleavage is 0.08.

On to UAACAGGGGGCCUCAGCAGAAGCGUACACGUCGCAGCCCCUGUCAGACUCUGGUGAAUCCGCGAAUUCUGCUGUACAUCUC [A13U U26A U48C U60C U76C], for which the self-cleavage worked out at 0.18.

For the variant UAACAGGGGGCCUCAGCAGAAGCGUUCACGACGCAGCCCCUGUCAGAUUCUAGUGUAUCUGCAAAUUCUGCUGUAUAUCCC [A13U U31A G52A A56U G63A U80C], the self-cleavage is 0.24.

Turning to UAACAGGGGGCCUCAGCAGAAGCGUCCACGCCGCAGCCCCUGUCAGAUUCUGGUGAAUCUGCGAAUUCUGCUGUAUAUCUU [A13U U26C U31C C81U], the self-cleavage is 0.35.

For the variant UAACAGGGGGCCUCAGCAGAAGCGUUCACGCCGCAGCCCCUGUCAGGUUCUGGUGAAUCUGCGGAUUCUGCUGUAUAUCUC [A13U U31C A47G A64G], the self-cleavage was 0.45.

In the case of UAACAGGGGGCCUCAGCAGAAGCGCUCACGUCGCAGCCCCUGUCACAUUCUGGUGAAUCUGCGAAUUCUGCUGUAUAUCUC [A13U U25C G46C], the self-cleavage worked out at 0.14.

UAACAGGGGGCCUCAGCAGAAGCGCUCACGUCGCAGCCCCUGUCAGGUUCUGGUGUAUCUGCGAAUUCUACUGUAUGUCUC [A13U U25C A47G A56U G70A A77G]: the self-cleavage was 0.04.

In the case of UAACAGGGGGCCUCAGCAGAAGCGUUCACGUCGCAGCCCCUAUCAGAUUGUGGUGAAUCUGCGAAUUCUGCCGUAUAUCUC [A13U G42A C50G U72C], the self-cleavage was 0.13.

For UAACAGGGGGCCUCAGCAGAAGCGUCCACGUCGCAGCCCCUGUCAGAUUCUGGUGAUUCUGCGAAUUCAGCUGUAUAUCUC [A13U U26C A57U U69A], the self-cleavage stood at 0.11.

UAACAGGGGGCCUCAGCAGAAGCGCUCACGUCGCAGCCCCAGACAGAUUCUGGUGAGUCGGCGAAUUCUGCUGUAUAUCUC [A13U U25C U41A U43A A57G U60G]: the self-cleavage was 0.18.

For the variant UAACAGGGGGCCUCAGCAGAAGCGUUCACGCCGCAGCCCCUGUCAGAUUCUGGUGAAUCUGCGAAUUCUGCUGUAUGUCUC [A13U U31C A77G], the self-cleavage amounted to 1.12.

For the variant UAACAGGGGGCCUCAGCAGAAGCGUACACGUCGCAGCCCCUGUCAGAUUCUGGUGAAUCUGCGAAUUCCGCUGUAUAUCUC [A13U U26A U69C], the self-cleavage is 0.28.

For UAACAGGGGGCCUCAGCAGAAGCGUACACGUCGCAGCCCCUGUCAGAUUCUGGUGAAUCUGCGAAUUCUGCUGUAUCUCUC [A13U U26A A77C], the self-cleavage was 1.04.

Turning to UAACAGGGGGCCUCAGCAGAAGCGAUCACGUCGCAGCCCCUGACAGAUUCUGGUGAACCAGCGAAUUCUGCUGUAUAUCUC [A13U U25A U43A U58C U60A], the self-cleavage was determined as 0.06.

In the case of UAACAGGGGGCCUCAGCAGAAGCGUCCACGUCGCAGCCCCUAUCGGAUUUCGGUGAAUCUGCGAAUUCUGCUGUAUAUCUC [A13U U26C G42A A45G C50U U51C], the self-cleavage came out at 0.08.

With UAACAGGGGGCCUCAGCAGAAGCGUCCACGACGCUGCCCCUGUCAGAUUCUGGUGAAUCUGCGAAUUCUGCUGUAUAUCUC [A13U U26C U31A A35U], the self-cleavage was 0.18.

Take UAACAGGGGGCCUCAGCAGAAGCGUGCACGUCGCAGCCCCUGUCAGAUUCUGGCGAAUCUGCGAAUUCUGCUGUAUAUAUC [A13U U26G U54C C79A]: the self-cleavage was 0.25.

Take UAACAGGGGGCCUCAGCAGAAGCGUUCACGCCGCAGCCCCUGUCGGAUUCUGGUGAAUCUGCGAAUUCUGCUGUAUAUCUC [A13U U31C A45G]: the self-cleavage was 0.86.

For the variant UAACAGGGGGCCUCAGCAGAAGCGUUCACGACGCAGCCCCUGUCAGAUUCUGGCGAAUCUGCGAAUUCUGCCGUAUAUCUC [A13U U31A U54C U72C], the self-cleavage amounted to 0.59.

UAACAGGGGGCCUCAGCAGAAGCGUCCGCGUCGCAGCCCCUGUCAGAUUCUGGUGAAUCUGCGAAUUCUGCUGUAUAUCCC [A13U U26C A28G U80C]: the self-cleavage was found to be 0.3.

Consider UAACAGGGGGCCUCAGCAGAAGCGUUCACGCCGCAGCCCCUGUCAGACUCCGGUGAAUCUGCGAAUUCUGCUGUAUAUCUC [A13U U31C U48C U51C], for which the self-cleavage came out at 0.46.

As for UAACAGGGGGCCUCAGCAGAAGCGUUCACGCCGCAGCCCCUGUCAGAUUCUGGUGAAUCUGUGAAUCCUGCUGUAUAUCUC [A13U U31C C62U U67C], the self-cleavage is 0.12.

For the variant UAACAGGGGGCCUCAGCAGAAGCGUUCACGACGCGGCCCCUGUCAGAUUCUGGUGAAUCUGCGAUCUCUGCUGUAUAUCUC [A13U U31A A35G A65U U66C], the self-cleavage was determined as 0.34.

For the variant UAACAGGGGGCCUCAGCAGAAGCGUUCACGACGCAGCCCCUGUCAGAUUCUGGUGAAUCUGCGAAUACUGCUGUAUAUCUC [A13U U31A U67A], the self-cleavage is 0.13.

Turning to UAACAGGGGGCCUCAGCAGAAGCGUCCACGUCGCAGCCCCUGUCAGAUACUGGUGAAUCUGCGAAUUAUGCUGUAUAUCUC [A13U U26C U49A C68A], the self-cleavage turned out to be 0.22.

For UAACAGGGGGCCUCAGCAGAAGCGCUCACGUCGCAGCCCCUGUCAGAUUCUGGUGAAUCUGCGAAUUCCGCUGUAUAUCUC [A13U U25C U69C], the self-cleavage came out at 0.12.

Consider UAACAGGGGGCCUCAGCAGAAGCGCUCACACCGCAGCUCCUGUCAGAUUCUGGUGAAACUGCGAAUUCUGCUGUAUAUCUC [A13U U25C G30A U31C C38U U58A], for which the self-cleavage came to 0.06.

As for UAACAGGGGGCCUCAGCAGAAGCGUUCACGCCGCAGCCCCUGCCAGAUUCUGGUGAAUCUGCGAAUUCUGCUGUAUUUCUC [A13U U31C U43C A77U], the self-cleavage was determined as 0.36.

(Values after the RNAGym collection of RNA variant scans (doi:10.1093/nar/gkz1192).)
